Sequences with one replicate were seen in a single cluster, so their values are uncertain.
These sequences were tested on ATP (assay: switch fluorescence ratio, 500 uM ATP over buffer (Cy3 cluster intensity, sum of 5 cycles each) (fold (ratio)); higher = stronger signal-on switching upon ATP binding; sequences stand for … in TCGTCGGCAGCGTCAGATGTGTATAAGAGACAGTTTTTTTTTTTTTTTTTTTTTTTTT…TC). Conditions: aptamer strand: ATP DNA aptamer (quencher-CACCTGGGGGAGTATTGCGGAGGAAGG + anchor), 100 nM annealed; ATP concentration: 500 uM; one replicate.
Outline: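 Cy3-labelled switching-strand clusters on a modified Illumina MiSeq flow-cell were annealed to 100 nM quencher-labelled ATP aptamer and imaged first in selection buffer, then after 15 min with 500 uM ATP at 22 °C. NaOH stripping and re-annealing separated each of five buffer/ATP cycles, and clusters outside 100-1000 RFU were excluded. The fluorescence ratio sums target-cycle Cy3 intensity over buffer-cycle Cy3 intensity per cluster and averages it per switch-domain sequence.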
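Note: ATP exposure 15 min at 22 °C before imaging.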

Sequence	switch fluorescence ratio
GATATTTCCA	0.981
GATATTTGCT	0.993
GATCAAATAG	1.06
GATCAATGTA	0.968
GATCACGTAA	1.27
GATCAGTGGG	0.998
GATCATCGCC	1.03
GATCATGCGC	1.02
GATCCACCAT	1.07
GATCCAGTGC	1.29
GATCCAGTGG	1.09
GATCCGCTCA	1.75
GATCCGGGCA	1.03
GATCCGGGGC	0.999
GATCCTACCG	1.07
GATCCTGCT	0.987
GATCGCCATT	0.994
GATCGCGAAT	1.22
GATCGCGGGC	1.14
GATCGGAAGG	0.953
GATCGGGCAC	1.01
GATCGTTCTC	0.958
GATCTAGATA	1.04
GATCTCACAT	0.995
GATCTCCCGC	1.64

Sequence	switch fluorescence ratio
GATCTGATAC	1.2
GATCTGATAG	0.995
GATCTGATCG	0.997
GATCTGGATT	1.02
GATCTGTACG	0.989
GATCTTCCTA	1.12
GATCTTCGTA	0.973
GATCTTGTTA	1.05
GATGAAAAGG	0.994
GATGACTGCT	0.988
GATGAGGACT	1.01
GATGAGGCGC	1.07
GATGAGGGAG	0.986
GATGAGTCGA	0.98
GATGAGTTCG	1.03
GATGAGTTGG	0.97
GATGATATCC	0.993
GATGATTGTT	1
GATGCATAGC	1.07
GATGCATGAG	1.05
GATGCATTTC	1.58
GATGCCCGA	0.991
GATGCCGTAT	0.997
GATGCGGACG	1.03
GATGCGGGAA	1.03

Sequence	switch fluorescence ratio
GATGCTGGGG	0.97
GATGGCTAAT	0.976
GATGGGAGCA	0.966
GATGGGGCG	1.02
GATGGTATCT	0.971
GATGGTTGAG	0.969
GATGTAACGG	0.99
GATGTAGCGA	1.15
GATGTCAAAA	1.04
GATGTCATAC	1.51
GATGTCCTGC	0.999
GATGTGAGAA	1.02
GATGTGCAC	1.15
GATGTGCTGG	0.958
GATGTGGCTC	1.02
GATGTGGGAT	1
GATGTGGGTC	0.961
GATGTTAAGT	1.03
GATTACACGG	1.06
GATTACCTGT	0.997
GATTAGACAT	1
GATTAGGATT	0.973
GATTAGTCTT	0.988
GATTATAT	0.999
GATTATTTCT	1.01

Sequence	switch fluorescence ratio
GATTCAATTC	1.16
GATTCAGCGA	1.05
GATTCAGTGT	0.972
GATTCCTACG	3.31
GATTCGGTCG	0.956
GATTCGTAGG	0.986
GATTCGTAGT	0.988
GATTCGTTGT	1
GATTCTAAGT	0.994
GATTCTTGTA	1.01
GATTCTTT	0.999
GATTGACT	1.02
GATTGATG	1
GATTGGCCTG	1.02
GATTGGCGGC	0.982
GATTGGTGAA	0.985
GATTGGTGGA	0.998
GATTGTAAGC	0.989
GATTGTACGG	1.03
GATTGTCTT	1.01
GATTGTGTAG	1.02
GATTTAAATC	0.984
GATTTAAGCG	1
GATTTCAAG	0.961
GATTTCTCAA	0.995

Sequence	switch fluorescence ratio
GATTTGTATG	0.97
GATTTGTTCG	0.963
GATTTTCTTA	0.998
GATTTTGTCA	1.02
GATTTTTGCT	0.938
GCAAAACCTT	1.54
GCAAAAGCAC	1.18
GCAAAATCCT	1.15
GCAAAGTTGT	0.995
GCAAATCACG	1.04
GCAAATCCGA	1.01
GCAAATTTTG	1
GCAAATTTTT	0.999
GCAACAGGGA	1.05
GCAACGTACG	1.37
GCAACGTCGC	1.01
GCAACTAGCT	0.995
GCAACTCCCG	2.74
GCAACTTTGG	0.996
GCAAGAGCAC	1.03
GCAAGATATG	0.997
GCAAGCCACG	1.1
GCAAGCGCTT	0.99
GCAAGGGGCC	0.999
GCAAGTAAGC	1.09

Sequence	switch fluorescence ratio
GCAAGTTAA	1.02
GCAAGTTGGA	1.05
GCAAGTTGTT	1.01
GCAATCCGGG	1.38
GCAATCTCAA	2.23
GCAATGCCCT	1.38
GCAATGCTGG	1.63
GCAATGGAAA	0.995
GCAATTAGA	0.97
GCAATTAGAA	1.01
GCAATTAGTA	0.983
GCACAATTCG	1.04
GCACACCCTT	1.19
GCACATGGAT	0.983
GCACATTTAT	1.03
GCACCATGGT	1.03
GCACCCATAC	1.42
GCACCCATTG	1.03
GCACCCCCAT	1.77
GCACCGGTTT	0.989
GCACCTACTA	1.32
GCACCTGGCA	1.03
GCACCTTGAT	0.983
GCACCTTTGA	1.02
GCACGCACCC	1.53

Sequence	switch fluorescence ratio
GCACGCATTA	1.63
GCACGCTTG	1.04
GCACGGCGCA	0.995
GCACGTCGTA	1.05
GCACGTTAAC	1.31
GCACTACTGA	1.18
GCACTATAGC	1.02
GCACTCCTCG	1.1
GCACTCGCCT	0.988
GCACTCTATA	1.04
GCACTCTCCG	1.24
GCACTGATTC	1.05
GCACTGTATT	1.13
GCAGAATAGC	1.01
GCAGACCTGG	1.03
GCAGACGGTC	1.07
GCAGACTTCT	1.01
GCAGAGCGCG	0.994
GCAGATGGGT	0.989
GCAGCAAGTA	1.65
GCAGCCGACG	1.11
GCAGCGAGGA	1.2
GCAGCTTCGC	0.988
GCAGCTTCTC	1.23
GCAGCTTTGC	1.06

Sequence	switch fluorescence ratio
GCAGGAAGAA	1.01
GCAGGAAGCT	1.02
GCAGGATACA	1.05
GCAGGCGGTC	0.995
GCAGGGAATA	0.992
GCAGGTAGCT	1.02
GCAGGTCAGG	1.07
GCAGGTGAG	1.13
GCAGGTGATT	0.978
GCAGGTGGGT	1.26
GCAGGTTAGT	0.978
GCAGTAGCGT	0.964
GCAGTAGGCT	0.994
GCAGTAGTAA	1.05
GCAGTAGTC	1.12
GCAGTATGAA	1.01
GCAGTCAGTG	1.01
GCAGTCGTTC	0.973
GCAGTGAATA	1.04
GCAGTGTCAT	1.04
GCAGTTTGTC	0.87
GCATAAGAAC	1.03
GCATACACGC	1.09
GCATACATCT	0.993
GCATACCTTG	1.01
